Test results published in the supplement of paper PMC3334620.
Whole data set: some 33,000 sequences, median “E-score (-0.5 to 0.5)” near -0.011, cut for the highest 2% near 0.28. The list shows a part of the results.

Target: T1, Gcr1 (UniProt P07261)
T1 sequence: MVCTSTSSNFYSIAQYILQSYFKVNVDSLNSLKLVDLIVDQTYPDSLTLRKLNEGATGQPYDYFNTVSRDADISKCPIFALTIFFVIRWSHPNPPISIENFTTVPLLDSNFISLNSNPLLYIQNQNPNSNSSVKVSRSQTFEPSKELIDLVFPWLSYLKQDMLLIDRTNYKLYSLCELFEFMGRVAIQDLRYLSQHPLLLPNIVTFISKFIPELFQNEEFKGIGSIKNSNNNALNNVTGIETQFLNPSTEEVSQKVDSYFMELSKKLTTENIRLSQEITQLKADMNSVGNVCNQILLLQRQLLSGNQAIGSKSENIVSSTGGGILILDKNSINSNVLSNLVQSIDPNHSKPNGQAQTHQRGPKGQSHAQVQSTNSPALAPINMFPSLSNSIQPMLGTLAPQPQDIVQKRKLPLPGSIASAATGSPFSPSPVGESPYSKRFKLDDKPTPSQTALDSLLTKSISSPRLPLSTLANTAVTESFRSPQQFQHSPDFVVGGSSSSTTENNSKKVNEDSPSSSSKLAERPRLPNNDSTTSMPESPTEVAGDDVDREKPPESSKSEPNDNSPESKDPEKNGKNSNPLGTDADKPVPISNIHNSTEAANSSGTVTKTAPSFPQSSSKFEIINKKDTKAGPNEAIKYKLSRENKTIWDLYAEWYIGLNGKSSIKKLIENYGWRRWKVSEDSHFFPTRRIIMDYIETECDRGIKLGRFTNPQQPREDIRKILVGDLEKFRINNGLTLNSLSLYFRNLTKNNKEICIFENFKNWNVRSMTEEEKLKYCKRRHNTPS
Assay: PBM E-score (8-mer binding enrichment) (E-score (-0.5 to 0.5)); higher = stronger / more preferred TF binding; most listed sequences are background and not binding sites
Conditions: protein concentration: 100 nM; construct: GST-full length
Procedure, shortened: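 The E-score, a modified Wilcoxon-Mann-Whitney statistic, was computed by the Universal PBM Analysis Suite for every ungapped eight-base word pooled with its reverse complement. Scans behind it were normalised with masliner after bound GST-tagged yeast transcription factors were detected with fluorescent anti-GST. The proteins, at about 100-200 nM, had been applied to universal all-10-mer Agilent arrays made double-stranded by primer extension.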

Sequence | PBM E-score
GCTTAGTA | -0.128
ATCGTGAC | 0.0576
CTGCTACC | -0.0201
AGTGAACG | -0.0715
CCATAGTA | -0.0273
CGCCGGAG | -0.0634
AACTAAAC | 0.0338
CTTTCGCA | -0.0299
CTTCGGTC | -0.0315
ATCTAAAT | 0.0297
GGGGTCCA | 0.0846
CAAGGTAG | -0.125
ACGAGGCA | -0.174
CGGTCGTA | -0.112
GCAAAAGC | -0.11
CGGCAAAA | 0.0366
CACGAGGC | 0.00318
GCCATCGA | -0.187
CAGGAGGC | 0.113
AATATGCA | -0.0622
AATGAGCT | -0.0086
ATCGCAAC | 0.0352
GATGTAGC | -0.0988
GGAAGTCC | 0.258
ATCAGACC | 0.0447

Sequence | PBM E-score
GACTATCA | -0.176
ATCAAAAC | 0.0109
CGTCGATA | -0.165
CAGTTGGA | -0.0721
CTGATTCA | 0.05
TCTCACAA | -0.08
ACCTCTTA | 0.127
AAAGGCTC | -0.0706
AGTAATCC | -0.0203
AGGGCGAG | -0.263
ACGAGGGC | 0.118
GCCTCATA | -0.0347
ACGGATGG | -0.138
CATTGCCC | -0.123
ATGTTAAA | 0.108
CCCTGATA | -0.103
GAAGAGTC | -0.129
ACTCAAGC | -0.149
GATCGCAC | -0.0107
CTGGACCC | -0.0397
ACGATCTA | -0.177
CGGTAAAG | -0.0673
GACAGCAA | -0.143
ACTGGTCG | 0.124
GATGTTTA | 0.0319

Sequence | PBM E-score
ATAATAGA | 0.0677
CGACCACC | 0.015
ATCCGCGG | -0.0453
GTGACCCA | 0.132
CTACCACC | 0.0268
CGTGCACG | -0.215
AATTGAAT | -0.161
CCACCACC | 0.124
AGTGTTCG | 0.00276
CGATACCC | 0.0179
AATAACGA | 0.125
CATACATA | 0.0456
AATCGAGT | 0.00756
ATACACGA | 0.138
AGACAGGC | -0.152
AAGGTCCT | -0.0902
CACTCTCA | 0.00231
GAAATTAA | 0.116
ACAGATCA | -0.134
GGCGTGGA | -0.111
CACATAGA | 0.0762
TAAAATTA | -0.00806
AGAACCCG | 0.175
ATTTATCC | 0.0625
TCATAACA | 0.018

Sequence | PBM E-score
CCTTACGA | -0.0419
ATCTCTAA | 0.0478
AATCTGAA | 0.161
ACGGCCAA | -0.111
CGTCTCGC | -0.13
AGCAACTC | -0.123
CAAGCAGG | -0.0143
CACAGACC | -0.00159
CTCCGTTC | -0.123
AATCTAGC | 0.0844
TAGCATCA | 0.0464
TCCCAAAA | 0.244
GCATCAGC | -0.00234
CTAAAAGC | -0.00957
TGCCACAA | 0.173
CAACATTC | 0.0583
CGTTACGC | 0.00104
CCCCCTTC | -0.312
ATTCCGCA | 0.155
CTTTGAGA | 0.0369
AACCCATG | -0.0195
AAATGTTC | 0.00698
AGTATCAG | -0.0443
ATGGCAAG | -0.118
ACGGGACC | -0.117

Sequence | PBM E-score
CTCGAGGA | -0.0231
ACATGGTG | 0.0329
AAGAGCAT | 0.114
TAACGGAA | 0.135
ACCCGGGT | -0.236
CACTTGGG | -0.109
AGCGCTTC | 0.12
CCCGAACG | -0.00173
CAAAATGG | 0.238
ATTCATTG | -1e-05
GCTTGCGA | -0.133
ACCACGAC | -0.0858
AGATGGCT | -0.032
AAGCTCAC | -0.0779
CCCCTCGG | -0.126
CTACATAG | -0.0452
CTGATCCC | 0.0396
GACCCGCC | -0.217
ACAACGGA | 0.0864
ATCACATG | -0.0474
GCCAATAC | -0.146
ATAAGTGA | -0.119
AATCAGGA | 0.0641
AGCTGCCC | 0.217
AGCGTAGA | -0.0252

Sequence | PBM E-score
CGTCGCGC | -0.134
GGACGATA | 0.0385
AGCCGCGA | 0.103
ATACGAGG | 0.0354
GTACACCA | -0.179
CAGACTCA | -0.268
ACTCGCCG | -0.00848
CATCCCGC | -0.0239
GGACAGAA | 0.0154
ATGAGCGC | -0.108
CGCTCTTC | -0.00286
AAAGATTA | 0.0511
AAACTAGT | 0.0835
GATTCCGA | 0.205
GACGGGCA | -0.103
CGCAGTAC | -0.321
AGCTCATC | -0.118
AACTCGAA | 0.143
CATGGCTA | -0.148
GCTTATTA | 0.0315
ACGTTATG | -0.158
CCTAACAG | 0.0692
TCGCCTAA | 0.0844
AGGAAAGG | 0.00229
ACACGAAG | 0.238

Sequence | PBM E-score
TTAAGGAA | 0.219
ACCGTGAG | -0.119
CTAGATCA | 0.0347
GATGCAAC | -0.0871
CTTGCTGC | 0.0636
CGTTCAAC | 0.00342
AGTTAGCC | -0.136
CAAACCCG | -0.213
GATCTATA | 0.0648
ACCTGTCC | -0.128
CTGGCCAC | -0.152
ATGTAAGG | 0.127
CGCTTCTC | 0.116
GACTAATA | -0.017
CCAGAGCC | 0.0627
CAGCGTCG | 0.127
ACGGCCGA | -0.161
GGAACTGA | -0.0451
ACGGATAG | 0.0102
AGAATGCC | 0.00241
GATTTGTA | -0.0426
CGCTTTAG | 0.0843
